We go through 58 compounds from PubChem BioAssay AID1508624 (National Center for Advancing Translational Sciences (NCATS), 2021).

SMILES strings stand for the structures. In all, about 48,000 compounds went through this assay and about 120 (0.25%) were called active. Roughly 4% stayed inconclusive and do not appear here. The call rests on the fitted dose curve; in most records, active means well fitted activation curve with a large enough effect; inconclusive means small, poorly fitted or top-dose-only effect, or another doubt; inactive means no such curve, though single readings can be large or run the other way. The list shows a part of the results.

A short description of the test: Primary qHTS for Identification of Small Molecule Activators of Huntingtin-Antisense Promoter Activity. Further: nearly all actives have a fitted effect of over 55% in size. The conditions noted are these: HEK293 HTT-AS promoter firefly luciferase reporter, 24 h; series mostly up to 57.5 µM; activity change, positive = activation: at the top concentration. Put shortly:
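Firefly luciferase signal from promoter-reporter HEK293 cells was scaled between vehicle (0%) and zero RLU (-100%). Compounds were tested at final concentrations of up to 57.5 uM over 24 h at 37 degrees C. PTC124 at 50 uM final served as control inhibitor.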
As to `O=C(NCCCN1CCCCC1)c1sc2ncccc2c1-n1cccc1`, the “activity change, positive = activation” value is inactive: 12.1%.

`COc1ccc(-c2nc(SCC(=O)NC3CCCC3)c(-c3ccc(F)cc3)[nH]2)cc1`: the “activity change, positive = activation” value was inactive: -29%.

`Cc1ccc(C(=O)c2cc(O)c(O)c([N+](=O)[O-])c2)cc1`: the activity change, positive = activation result is “inactive”.

As to `Cc1ccc(CCNS(=O)(=O)c2cc(-c3cc(C)no3)ccc2C)cc1`, the “activity change, positive = activation” value is inactive: -25.1%.

Regarding `O=C(NC1CC(=O)N(c2cccc(F)c2)C1)c1cccs1` (stereo not drawn), the “activity change, positive = activation” value is inactive: -5.27%.

As for `CCOc1ccc(C(=O)NCc2ccc3c(c2)CCN3C(=O)c2ccc(Cl)cc2)cc1`, the “activity change, positive = activation” value was inactive: 6.28%.

On to `Cc1cccc(-n2ncc(C(=O)N3CCOCC3)c2C2CCN(C(=O)OC(C)(C)C)CC2)c1`, for which the “activity change, positive = activation” value is inactive: 0.247%.

Turning to `CC(C)N(C(=O)Cn1cc(SCC(=O)Nc2ccccc2F)c2ccccc21)C(C)C`, the “activity change, positive = activation” value is inactive: -31.8%.

As for `CC(C)C(=O)Nc1ccc2nc(SCC(=O)N3CCCC3)sc2c1`, the “activity change, positive = activation” value was inactive: 7.71%.

Take `CCCN(C(=O)c1cc2c(=O)oc3ccccc3c2s1)c1ccc(CC)cc1`: the “activity change, positive = activation” value was inactive: -13.1%.

On to `CCc1ccc(OCC(=O)NC(Cc2c[nH]c3ccccc23)C(=O)O)cc1` (stereo not drawn), for which the “activity change, positive = activation” value is inactive: 4.45%.

In the case of `Cc1c(Cl)cccc1NC(=O)N1CCN(C(=O)c2nsc3ccccc23)CC1`, the “activity change, positive = activation” value is inactive: -20.5%.

Regarding `Cc1ccccc1Nc1cc(C(=O)NCCCN2CCN(c3cccc(Cl)c3)CC2)c2ccccc2n1`, the “activity change, positive = activation” value is inactive: -40.2%.

For `CCc1ccc(NC(=O)c2ccc(CN3CC(=O)N4CCCCC4C3=O)cc2)cc1` (stereo not drawn), the “activity change, positive = activation” value was inactive: -2.37%.

On to `Cc1ccc(C(C)C)c(OCCSc2nc(-c3ccccc3F)nc3cc(=O)[nH]n23)c1`, for which the “activity change, positive = activation” value was inactive: 2.47%.

Regarding `CCOc1ccc(CCNC(=O)C2CCN(C(=O)N3CC(CC)Oc4ccccc43)CC2)cc1` (stereo not drawn), the “activity change, positive = activation” value is inactive: -12.9%.

For the compound `CCCCN(CC)CCCNC(=O)CS(=O)(=O)Cc1nc(-c2ccc(C)cc2)oc1C`, the “activity change, positive = activation” value was inactive: -16.6%.

`CCCOc1ccc(C(=O)Nc2ccc3oc(-c4ccncc4)nc3c2)cc1`: the “activity change, positive = activation” value was inactive: -16%.

`O=C(Nc1nnc(N2CCCCCC2)s1)Nc1cc(F)ccc1F`: the “activity change, positive = activation” value is inactive: 15.3%.

For the compound `CCOCCCN(Cc1ccco1)S(=O)(=O)c1cc2c(cc1Cl)NC(=O)CO2`, the “activity change, positive = activation” value was inactive: -19.6%.

For the compound `Cc1c2cnn(CC(=O)NCc3ccc(F)cc3)c(=O)c2c(C)n1Cc1cccc(Cl)c1`, the “activity change, positive = activation” value is inactive: -36.8%.

Regarding `COc1cc(NC(=O)CSc2nnc(C)n3c2cc2oc(C)cc23)cc(OC)c1`, the “activity change, positive = activation” value is inactive: -7.79%.

On to `Cc1ccccc1-c1noc(-c2ccc(N3CCCCC3)c([N+](=O)[O-])c2)n1`, for which the “activity change, positive = activation” value is inactive: -63.9%.

For the compound `COCCN(Cc1cccs1)S(=O)(=O)c1cc(-c2cc(C)no2)ccc1C`, the “activity change, positive = activation” value is inactive: -37.4%.

As for `Cn1nnc2c(N3CCN(c4cccc(Cl)c4)CC3)ncnc21`, the “activity change, positive = activation” value was inactive: -5.69%.

`COCCCNC(=O)c1c(NC(=O)Cc2coc3c(C)c(C)ccc23)sc2c1CCCC2`: the “activity change, positive = activation” value was inactive: -16.6%.

For the compound `CCC(Sc1nnc2c(n1)[nH]c1ccccc12)C(=O)Nc1nnc(C(C)C)s1` (stereo not drawn), the “activity change, positive = activation” value is inactive: -22.3%.

For the compound `CCCCOC(=O)c1c(N)n(-c2ccc(OC)cc2OC)c2nc3ccccc3nc12`, the “activity change, positive = activation” value is inactive: -1.91%.

For `Cc1ccc(Sc2c(C)nn(-c3ccccc3)c2OC(=O)C(C)(C)C)cc1`, the “activity change, positive = activation” value was inactive: -13.1%.

In the case of `CCOc1ccc(NC(=O)CC2C(=O)N(c3ccc(F)cc3)C(=O)N2Cc2ccc(OC)c(OC)c2)cc1` (stereo not drawn), the “activity change, positive = activation” value is inactive: 12.2%.

As for `COc1ccc(OC)c(NS(=O)(=O)c2cc3c(cc2Cl)N(C(C)=O)CCO3)c1`, the “activity change, positive = activation” value was inactive: -27.8%.

As for `COC(=O)c1c(NC(=O)C(C)Oc2ccc(Cl)c(C)c2)sc(C)c1C` (stereo not drawn), the activity change, positive = activation was inactive: 9.77% [at 11.5 µM, percent change from vehicle, -100% = no light].

Take `CCN1C(=O)c2ccccc2S(=O)c2ccc(C(=O)NCc3ccc(OC)cc3)cc21` (stereo not drawn): the “activity change, positive = activation” value was inactive: -15.1%.

In the case of `O=C(CSc1nc2cc(C(=O)NC3CCCC3)ccc2c(=O)n1CC1CCCO1)c1cccc(Cl)c1` (stereo not drawn), the “activity change, positive = activation” value was inactive: -14.3%.

For `Cc1ccc(C)c2sc(NC(=O)c3ccc(S(=O)(=O)N4CCC(C)CC4)cc3)nc12`, the “activity change, positive = activation” value is inactive: -29.9%.

With `COc1ccc(OC)c(CCNC(=O)CS(=O)(=O)Cc2nc(-c3cccc(Cl)c3)oc2C)c1`, the “activity change, positive = activation” value is inactive: -12.2%.

On to `COc1ccc(CCNc2oc(/C=C/c3cc(OC)c(OC)c(OC)c3)nc2C#N)cc1OC`, for which the “activity change, positive = activation” value is inactive: -11.5%.

With `CCOC(=O)c1ccc(N2C(=O)c3n[nH]c(-c4cccs4)c3C2c2ccc(OCC)cc2)cc1` (stereo not drawn), the “activity change, positive = activation” value is inactive: -42.2%.

Consider `CCOc1ccccc1NC(=O)NCc1ccc2c(c1)CCN2C(=O)c1ccccc1`, for which the “activity change, positive = activation” value is inactive: -51.5%.

On to `COc1ccc(/C=C\c2onc(C)c2S(=O)(=O)N2CCC(C(=O)Nc3ccc(F)cc3F)CC2)cc1`, for which the “activity change, positive = activation” value is inactive: -15%.

As to `Cc1ccc(-c2nc3nc(C)cc(N4CCN(c5cccc(C)c5C)CC4)n3n2)cc1`, the “activity change, positive = activation” value was inactive: 5.24%.

Take `CN(C)c1ccc(CN(Cc2ccco2)C(=O)c2ccc(C(C)(C)C)cc2)cc1`: the “activity change, positive = activation” value was inactive: -21.9%.

As to `Cc1oc(-c2cccc(Cl)c2)nc1CSc1nncn2c1cc1occc12`, the “activity change, positive = activation” value is inactive: -16.5%.

For the compound `COc1ccc(CC(=O)Nc2ccc3nc(Nc4ccc(OC)cc4)cc(C)c3c2)cc1`, the “activity change, positive = activation” value was inactive: -41%.

Take `CCc1ccc(CNC(=O)c2cc(=O)[nH]c3ccc(S(=O)(=O)N4CCCCC4)cc23)cc1`: the “activity change, positive = activation” value was inactive: -4.16%.

Regarding `Cc1c(Cl)ccc2sc(N3CCN(C(=O)C(C)C)CC3)nc12`, the “activity change, positive = activation” value was inactive: -3.84%.

On to `CCOC(=O)c1c(C)oc2nc(C)nc(Nc3ccc(C)c(Cl)c3)c12`, for which the “activity change, positive = activation” value is inactive: -16.6%.

Take `CCOC(=O)c1c(NC(=O)c2cc(C(C)C)on2)sc(C(C)=O)c1C`: the “activity change, positive = activation” value is inactive: -5.16%.

Turning to `COc1cccc(CNC(=O)c2cc(C)nc3c2c(C)nn3-c2ccc(C)cc2)c1`, the “activity change, positive = activation” value was inactive: -21.7%.

Regarding `COc1cccc(-n2c(=O)c3c(C)c(C)sc3n(CC(=O)NCCc3ccc(OC)c(OC)c3)c2=O)c1`, the “activity change, positive = activation” value was inactive: 0.386%.

For `Cc1ccc(Cn2c(C(=O)O)c(CNCc3ccc(OC(C)C)cc3)c3ccc(C)cc32)cc1`, the “activity change, positive = activation” value is inactive: -61.4%.

Consider `COc1ccc(OC)c(NC(=O)CSc2ccc(-c3cccs3)nn2)c1`, for which the “activity change, positive = activation” value is inactive: -12.2%.

For the compound `COc1cc(OC)c(NC(=O)C2CCN(S(=O)(=O)c3c(C)noc3/C=C/c3c(C)cc(C)cc3C)CC2)cc1Cl`, the “activity change, positive = activation” value is inactive: 16.9%.

Take `CN(Cc1ccccc1)C(=O)c1cn(C)c2ccc(S(=O)(=O)N3CCCCC3)cc2c1=O`: the activity change, positive = activation was inactive: -0.982% [at 11.5 µM, percent change from vehicle, -100% = no light].

As to `COc1cccc(OCc2nc3ccccc3n2CCOc2ccc(C)cc2)c1`, the “activity change, positive = activation” value is inactive: -7.14%.

For `COc1ccc2[nH]cc(CCNC(C)=O)c2c1`, the activity change, positive = activation result was “inactive”.

As to `CC12CN3CC(c4ccccc4)(CN(C1)C3c1ccc(O)cc1)C2=O` (stereo not drawn), the “activity change, positive = activation” value was inactive: -13.7%.

On to `CCOC(=O)c1c(NC(=O)C(C)Sc2cn(CCNC(=O)c3c(F)cccc3F)c3ccccc23)sc2c1CCC2` (stereo not drawn), for which the “activity change, positive = activation” value was inactive: -21.4%.
